This is one part of the list. Construct or isoform of the protein are uncertain.
What follows are sequences tested against GST-SBP-ILF3 (Homo sapiens) (UniProt Q12906) (assay: targeted RNA Bind-n-Seq). Settings: RBNS binding buffer: 25 mM Tris pH 7.5, 150 mM KCl, 3 mM MgCl2, 0.1% Tween, 0.5 mg/mL BSA, 1 mM DTT; 27 nM protein, 750 pM RNA pool; temperature not stated; high values mean tight binding; sequences stand for … in GGGUAAAAGCGAGGUGAA…CGGGACAAGUAUUAUGGG.

| Sequence | binding signal (log2 fold change) |
| --- | --- |
| GGUGGUGGUGUUGGCUUCUAACACCGCUAC [gtspaired] | -0.643 |
| GGUGUGUGUGUUGGAGCCUAACACAUACGC [gtspaired] | -0.545 |
| UUUUUUUUUUGAGAGCGAAGCGUUCUCCAG [tttttgagapaired] | 0.121 |
| UUUUUUUUUUGAGAUCGAGGCGAUCUUCUG [tttttgagapaired] | 0.176 |
| UUUUUUUUUUGAGAGGGUGACCCUCUUCUA [tttttgagapaired] | 0.0182 |
| UUUUUUUUUUGAGACGGAAACCGUCUCCUA [tttttgagapaired] | 0.0242 |
| UUUUUUUUUUGAGAUGGGGACCAUCUCCGG [tttttgagapaired] | 0.356 |
| UUUUUUUUUUGAGACUGCUCCAGUCUCCGG [tttttgagapaired] | 0.88 |
| UUUUUUUUUUGAGACGGGGGCUGUCUCCUG [tttttgagapaired] | 1.08 |
| UUUUUUUUUUGAGAGCGGGACGCUCUCCUG [tttttgagapaired] | 0.418 |
| UUUUUUUUUUGAGAGGGUACCCCUCUUCUG [tttttgagapaired] | 0.227 |
| UUUUUUUUUUGAGACUGGGUCAGUCUCCAG [tttttgagapaired] | 0.335 |
| GUGUGUGGUGUUGGUACCUAACACCACGCG [gtspaired] | -0.932 |
| GUGUGUGGUGUUGGCGCCUAACACCGCACA [gtspaired] | -0.351 |
| UUUUUUUUUUGAGACGGUUUCUGUCUUCUG [tttttgagapaired] | 0.494 |
| UUUUUUUUUUGAGACGGCGACCGUCUCCUG [tttttgagapaired] | 0.539 |
| UUUUUUUUUUGAGAUCGGGACGGUCUUCUA [tttttgagapaired] | 0.339 |
| GGUGGUGGUGUUGGCCCCUAACACCAUCGC [gtspaired] | -0.0538 |
| GGUUGUGGUGUUGGAACCUAACACCGCGAC [gtspaired] | -0.646 |
| GGUGUUGGUGUUGGACUCUAACACCAGCGC [gtspaired] | -0.406 |
| UUUUUUUUUUGAGAUGGACUCCAUCUUCUA [tttttgagapaired] | 0.0128 |
| UUUUUUUUUUGAGAGGGAGCCCUUCUCCAG [tttttgagapaired] | 0.407 |

| Sequence | binding signal (log2 fold change) |
| --- | --- |
| UUUUUUUUUUGAGACGGAGUCCGUCUUCUG [tttttgagapaired] | 0.684 |
| UUUUUUUUUUGAGAGGGUGGCCCUUUCCAG [tttttgagapaired] | 0.673 |
| UUUUUUUUUUGAGACGGUCUCUGUCUCCUG [tttttgagapaired] | 1 |
| GGUUGUGGUGUUGGCGCCUAACACCACGAC [gtspaired] | -0.376 |
| UUUUUUUUUUGAGACGGAUACCGUCUUCUG [tttttgagapaired] | 0.69 |
| GUGUGUGGUGUUGGCUUCUAACACCGCGCA [gtspaired] | -0.601 |
| UUUUUUUUUUGAGACUGUGACAGUUUCCAG [tttttgagapaired] | 0.463 |
| UUUUUUUUUUGAGACGGUCUCCGUCUCCAG [tttttgagapaired] | 0.525 |
| UUUUUUUUUUGAGAGCGACGCGUUCUCCAG [tttttgagapaired] | 0.777 |
| UUUUUUUUUUGAGACGGAAACCGUCUUCUA [tttttgagapaired] | 0.155 |
| UUUUUUUUUUGAGACGGCAACCGUUUCCUA [tttttgagapaired] | 0.51 |
| UUUUUUUUUUGAGAGGGGAUCCCUUUCCGG [tttttgagapaired] | 0.252 |
| UUUUUUUUUUGAGAUGGUAACCAUUUCCGG [tttttgagapaired] | 0.356 |
| UUUUUUUUUUGAGACCGGUUCGGUCUCCUA [tttttgagapaired] | 0.518 |
| GUGGUGUGUGUUGGAACCUAACACACAUCG [gtspaired] | -0.496 |
| UUUUUUUUUUGAGAUGGCUUCCAUCUCCAG [tttttgagapaired] | 0.32 |
| UUUUUUUUUUGAGACGGGAUCUGUUUCCAG [tttttgagapaired] | 0.624 |
| GUGUGUGGUGUUGGAGCCUAACACCACAUA [gtspaired] | -0.671 |
| GUUGUGUGUGUUGGCACCUAACACACACAG [gtspaired] | -0.841 |
| UUUUUUUUUUGAGACUGAGUCAGUCUCCAG [tttttgagapaired] | 0.306 |
| GUGUGGUGUGUUGGUUCCUAACACAUCGCA [gtspaired] | -0.699 |
| GUGGUUGGUGUUGGUCCCUAACACCAACUA [gtspaired] | -0.347 |

| Sequence | binding signal (log2 fold change) |
| --- | --- |
| GGUGUGUGUGUUGGCAUCUAACACAUACAC [gtspaired] | -0.432 |
| UUUUUUUUUUGAGAGCGACACGCUCUCCGG [tttttgagapaired] | 0.277 |
| UUCUUCCUUCCUCCGCCGGAGGAGGGGAGA [ctspaired] | -0.204 |
| UUUUUUUUUUGAGACCGAGGCGGUUUCCGG [tttttgagapaired] | 0.749 |
| GGUUGGUGUGUUGGCAUCUAACACACUAAC [gtspaired] | -0.694 |
| UUUUUUUUUUGAGAGCGAAACGCUCUUCUA [tttttgagapaired] | -0.361 |
| GUUGUGUGUGUUGGCGUCUAACACACGCAA [gtspaired] | -0.607 |
| UUUUUUUUUUGAGAGCGGAGCGCUCUCCUA [tttttgagapaired] | 0.0973 |
| GGUGGUGGUGUUGGCCCCUAACACCGCUAC [gtspaired] | -0.501 |
| UUUUUUUUUUGAGACCGGGCCGGUCUUCUA [tttttgagapaired] | 0.592 |
| UUUUUUUUUUGAGACGGACUCCGUCUCCUG [tttttgagapaired] | 0.571 |
| UUUUUUUUUUGAGAGUGAAACACUCUCCUG [tttttgagapaired] | 0.268 |
| UUUUUUUUUUGAGAGCGGGACGCUCUCCAG [tttttgagapaired] | 0.485 |
| UUUUUUUUUUGAGACUGGGGCAGUCUCCGG [tttttgagapaired] | 0.642 |
| UUUUUUUUUUGAGAACGAAGCGUUCUUCUA [tttttgagapaired] | -0.0147 |
| GUGGUGUGUGUUGGAGUCUAACACACAUCG [gtspaired] | -0.536 |
| UUUUUUUUUUGAGACCGAUUCGGUUUCCAG [tttttgagapaired] | 0.104 |
| UUUUUUUUUUGAGAGUGCGACAUUCUCCUA [tttttgagapaired] | 0.166 |
| GGUUGGUGUGUUGGCACCUAACACACCGAC [gtspaired] | -0.959 |
| UUUUUUUUUUGAGAGGGAUACCCUCUCCAG [tttttgagapaired] | 0.0898 |
| UUUUUUUUUUGAGACGGGAUCUGUCUUCUA [tttttgagapaired] | 0.327 |

Source: paper PMC5892938
